From PMC6919601, “Identification of Plasmodium dipeptidyl aminopeptidase allosteric inhibitors by high throughput screening” (PLoS ONE, 2019)
Among all 110,000 compounds or so, about 230 (0.21%) showed an effect of 50% or more. The list shows a part of the results.

molecular target: DPAP1 (Plasmodium falciparum, UniProt Q8IIJ9); test: primary screen, percent inhibition; read by cleavage of a fluorogenic dipeptide substrate; higher = more effect of the substance; set-up: species or system P. falciparum D10 trophozoite lysates; single well
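Note: 30 min substrate incubation versus DMSO and 10 µM JCP410 controls.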

Chain of DPAP1 (Q8IIJ9 whole entry, looked up): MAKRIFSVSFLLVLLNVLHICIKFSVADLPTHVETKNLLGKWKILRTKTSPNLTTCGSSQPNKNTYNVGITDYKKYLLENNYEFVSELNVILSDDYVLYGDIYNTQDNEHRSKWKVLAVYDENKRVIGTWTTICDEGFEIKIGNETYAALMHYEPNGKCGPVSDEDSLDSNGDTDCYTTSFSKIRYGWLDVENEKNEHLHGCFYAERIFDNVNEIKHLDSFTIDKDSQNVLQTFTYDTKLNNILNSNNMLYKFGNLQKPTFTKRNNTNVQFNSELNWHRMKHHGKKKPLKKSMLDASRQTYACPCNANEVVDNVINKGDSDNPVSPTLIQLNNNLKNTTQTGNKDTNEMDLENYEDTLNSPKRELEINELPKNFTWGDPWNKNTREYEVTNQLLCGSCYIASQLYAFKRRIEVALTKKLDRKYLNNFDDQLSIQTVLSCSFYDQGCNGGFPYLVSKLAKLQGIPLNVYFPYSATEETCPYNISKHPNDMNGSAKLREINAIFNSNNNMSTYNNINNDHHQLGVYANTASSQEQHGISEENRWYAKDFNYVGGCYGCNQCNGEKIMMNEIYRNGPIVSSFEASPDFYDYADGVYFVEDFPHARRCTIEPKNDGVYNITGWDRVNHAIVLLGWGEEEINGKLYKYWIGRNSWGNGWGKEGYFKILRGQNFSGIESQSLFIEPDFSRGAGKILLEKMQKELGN

Point of comparison: COc1cccc(C2=NS(=O)(=O)N(C)C(C(=O)NCC34CC5CC(CC(C5)C3)C4)=C2)c1, “% Inhibition @ 10 uM” value -6.59%. Against it:
- N=CC1=C(O)c2ccccc2C1=O — higher, 0.343%
- N=C1/C(=C/c2ccc(Sc3cccc4ccccc34)o2)C(=O)N=C2SC=CN12 — higher, 2.14%
- Cc1cc(C)c(C)c(Cn2c(CO)nc3ccccc32)c1C — higher, -0.551%
- Cc1nnc(N2C(=O)c3oc4ccccc4c(=O)c3C2c2cccs2)s1 (stereo not shown) — higher, 3.12%
- O=C(NC(=S)NCCc1ccccc1)c1ccccc1 — lower, -8.01%
- NC(=O)c1ccc2[nH]c3c(c2c1)CCCC3 — higher, 4%
- COc1ccc2c(CNCCc3ccccc3C)c(C(=O)O)n(Cc3ccccc3F)c2c1 — higher, -6.56%
- CCOC(=O)N1CCN(C(=O)c2nc(-c3ccc(C)cc3)n3c2CCCCC3)CC1 — higher, -2.4%
- COc1cccc2c1Oc1nc(-c3cccc(OC(C)C)c3)nc(O)c1C2 — higher, -1.06%
- CC(NC(=O)c1ccc(Cl)c([N+](=O)[O-])c1)c1ccccc1 (stereo not shown) — higher, 2.38%
- CCC(=O)CC(c1ccc([N+](=O)[O-])cc1)c1c(O)sc2ccccc2c1=O (stereo not shown) — higher, 4.98%
- CCOC(=O)N1CCN(C(=O)CS(=O)Cc2nc(-c3cccc(C)c3)oc2C)CC1 (stereo not shown) — higher, -1.05%
- CC/C(=N\c1ccccc1)C1=C(O)CC(C)(C)CC1=O — higher, 6.65%
- COCCNC(=O)Nc1cn(C)c(=O)c2ccccc12 — higher, 0.745%
- CC(=O)Nc1nnc(S(=O)(=O)N2CCOCC2)s1 — higher, -5.37%
- COc1ccc(CNC(=O)Cn2c(=O)[nH]c3ccsc3c2=O)cc1 — higher, -1.29%
- COc1ccc(C2c3[nH]c4ccccc4c3CCN2C(C)=O)c(OC)c1 (stereo not shown) — higher, -4.3%
- O=C(Nc1sc2c(c1C(=O)c1ccccc1)CCCC2)c1ccc([N+](=O)[O-])cc1 — higher, 1.54%
- Cc1ccc(SCc2ccccc2C(=O)O)cc1 — lower, -6.83%
- CCOCCCNc1nc2ccccc2c2nc(-c3ccccc3)nn12 — higher, 2.6%
- COc1ccc(OC)c(CN2CCN(Cc3ccc(Br)cc3)CC2)c1 — higher, 0.635%
- CCN(Cc1ccccc1)C(=O)c1ccc(SC)cc1OC — higher, 0.777%
- Cc1cccc(/C=C2/SC(=O)N(CN(C)C)C2=O)c1 — higher, 8.71%
- CCOC(=O)c1c(C)n(-c2ccc(OCC)cc2)c2ccc(O)cc12 — higher, -3.09%
- O=C(NC1(C(F)(F)F)NC(=O)N(CCc2ccccc2)C1=O)C1CCCCC1 (stereo not shown) — higher, 7.4%
- CCc1ccc(-c2cc(C)no2)cc1S(=O)(=O)Nc1cc(C)ccn1 — higher, 2.74%
- O=C(C1CCC(c2ccccc2)CC1)N1CCOCC1 (stereo not shown) — higher, -5.11%
- Cc1cc(O)c2c3c(c(=O)oc2c1)CCCC3 — higher, 1.37%
- COc1ccc(CN2CCc3nc(O)nc(O)c3C2)cc1 — higher, -3.13%
- CCC(O)c1nc2ccccc2n1C (stereo not shown) — higher, 2.05%
- Cc1ccc(C2=NS(=O)(=O)N(C)C(C(=O)NCC3CCCO3)=C2)cc1 (stereo not shown) — higher, 2.32%
- COc1ccc(OC)c(C2C3=C(O)CC(C)(C)CC3=Nc3ccccc3N2C(C)=O)c1 (stereo not shown) — the same, -6.59%
- CN(C)Cc1cc(CN(C)C)c(O)c(C(C)(C)C)n1 — higher, -1.86%
- O=C1Oc2ccccc2C(=O)/C1=C(O)/C=C/c1ccc(-c2ccccc2)o1 — higher, 3.27%
- NC(=O)c1cc(S(=O)(=O)N(Cc2ccco2)C2CCCCC2)cs1 — higher, -5.12%
- CN1C(=O)CC(N2CCN(c3ccccc3)CC2)C1=O (stereo not shown) — higher, -0.992%
- Cc1ccc2nc(NC(=O)c3sc(C)nc3C)sc2c1 — higher, 0.758%
- c1ccc(CSc2nc3ncccc3o2)nc1 — higher, 3.31%
- O=C(NC1CCN(Cc2ccccc2)CC1)c1sc2ccccc2c1Cl — higher, -4.35%
- Cc1cc(C)c(NC(=O)C(C)N2CCCCCC2)c(C)c1 (stereo not shown) — higher, -4.01%
- CCOC(=O)c1cnn2c(N)c(C#N)nnc12 — lower, -7.51%
- CCOC(=O)c1c(/N=c2\oc3cc(O)ccc3cc2C(N)=O)sc2c1CCCC2 — higher, 1.25%
- CC1=C(C(=O)Nc2ccc(C)cn2)C(c2sccc2C)C2=C(O)CC(C)(C)CC2=N1 (stereo not shown) — higher, -0.968%
- OC1CCN(Cc2ccc(-c3ccccc3)cc2)CC1 — higher, 3.25%
- COc1ccc(CCNCc2c(C(=O)O)c(C)n(Cc3ccc(F)cc3)c2C)c(OC)c1OC — higher, -3.67%
- COc1ccc(NC(=O)CN(c2cc(C)ccc2C)S(=O)(=O)c2ccccc2)c(OC)c1 — higher, -3.39%
- CC(O)c1cccc(NC(=O)c2cc3n(n2)C(C(F)(F)F)CC(c2ccc(F)cc2)N3)c1 (stereo not shown) — higher, -2.29%
- O=[N+]([O-])c1cccc(CN2CCN(c3cccc(Cl)c3)CC2)c1 — higher, -1.86%
